In PubChem BioAssay AID1814 (Broad Institute, 2009):
Out of some 300,000 compounds screened, about 22,000 (7.3%) were called active. Inconclusive means that the source gave no clear call. Such entries were picked first, then a sample of the others. No stated cut-off is given here; in the data, active means activity score below about -60%; inconclusive means mostly about -28% to -61%; inactive means positive scores.

Assay: Activators via SNCA 5'UTR binding, MLPCN (AID 1814)
Details: alpha-synuclein 5'UTR reporter, activators screen; hits give low values; tested at 7.5 µM

Row | SMILES | activity score
1 | CS(=O)(=O)c1ccc(C(=O)Nc2ccc(N3CCCCC3)cc2)c(Cl)c1 | inconclusive: -44.4%
2 | CC(C)(C)c1ccc(C2=CC(c3ccccc3)n3ncnc3N2)cc1 (centres undefined) | inconclusive: -58.3%
3 | O=C(Nc1nccs1)c1cc(-c2ccncc2)nc2ccccc12 | active: -67.1%
4 | COc1cc(C(=O)N/N=C/c2cn(Cc3cccc(F)c3)c3ccccc23)ccc1O | inactive: 62.1%
5 | NC(=O)c1ccsc1NC(=O)CS(=O)(=O)c1ccccc1 | inconclusive: -54.8%
6 | CCOC(=O)c1cc2cc3ccccc3cc2oc1=O | inconclusive: -56.1%
7 | Nn1c(-c2cccs2)nc2sc3c(c2c1=O)CCCC3 | active: -149%
8 | CN(C)C=NC(=O)c1cc(C(=O)c2ccc(F)cc2)c[nH]1 | inconclusive: -59.4%
9 | O=C(CCCN1C(=O)/C(=C/c2cccc(Br)c2)SC1=S)Nc1cccnc1 | inconclusive: -56.7%
10 | COc1cccc(OC)c1C(=O)NNC(=O)c1cccnc1 | inconclusive: -36.9%
11 | O=C1C(=O)c2ccccc2C(O)=C1CCCCl | inconclusive: -37%
12 | Cc1ccc(-c2nc(-c3ccccn3)no2)cc1 | inactive: 99.3%
13 | Cc1ccc(CN(C(=O)c2cc3ccccc3oc2=O)C2CCS(=O)(=O)C2)cc1 (centres undefined) | active: -104%
14 | O=C(N/N=C/c1ccc[nH]1)c1ccc(COc2cccc3cccnc23)cc1 | inactive: 104%
15 | c1ccc(N2CCN(c3nc4ccccc4n4nnnc34)CC2)cc1 | inconclusive: -42.4%
16 | CCOC(=O)C1CCN(c2ncnc3c2oc2ccc(Br)cc23)CC1 | inconclusive: -41%
17 | O=C(NC1=NCCS1)c1ccccc1 | inconclusive: -44.8%
18 | CCN1C/C(=C/c2ccc(OC)c(O)c2)C(=O)/C(=C/c2ccc(OC)c(O)c2)C1 | inactive: 116%
19 | CCN1CCN(Cc2ccc(NC(=O)c3ccc(C)c(NC(=O)C(=O)c4c[nH]c5ccccc45)c3)cc2C(F)(F)F)CC1 | inactive: 112%
20 | Cc1ccccc1C(=O)Nn1cnc2ccccc2c1=O | active: -78.9%

Row | SMILES | activity score
21 | O=c1c2c(nc3cc(-c4cccc(Cl)c4)[nH]n13)CCCC2 | inactive: 18.5%
22 | Cc1cc(C(=O)Nc2ccc3c(c2)OCCO3)c(C)o1 | active: -113%
23 | CCOC(=O)N1CCN(S(=O)(=O)c2c(C(=O)N3CCCCC3)c(C)n(C)c2C)CC1 | inconclusive: -13.4%
24 | Cc1ccc(-n2nc3ccc(N)cc3n2)c(C)c1 | inactive: 65.9%
25 | CCCC1=NN(c2ccc([N+](=O)[O-])cc2)C(=O)/C1=C/N(C)C | inconclusive: -60.4%
26 | Cc1cccc(NC(=O)c2cc3c(=O)n4ccccc4nc3s2)c1 | inconclusive: -61.4%
27 | O=C(NC(=O)c1ccccc1)Nc1ccccc1 | inactive: 71.8%
28 | CC1=C(CC[C@@H](C)CO)OC2CC3C4CCC5CC(O)CCC5(C)C4CC(=O)C3(C)C12 (some centres undefined) | inconclusive: -53.4%
29 | Cc1ccc(NC(=O)CC2SCCNC2=O)cc1Cl (centres undefined) | active: -143%
30 | Cn1nc(-c2ccc(N3CCCCC3)c(NC(=O)c3ccco3)c2)c2ccccc2c1=O | inactive: 67.2%
31 | CCOC(=O)Cc1csc(NC(=O)c2c(O)c3ccccc3n(CC(C)C)c2=O)n1 | inactive: 74.6%
32 | CCN(CC)c1ccc(-c2sc(Nc3ccccc3)n[n+]2-c2ccc(F)cc2)cc1 | inconclusive: -55.2%
33 | COC(CSc1nc(N)c2c3c(sc2n1)CN(C)CC3)OC | inconclusive: -61.3%
34 | O=C(Nc1ccccc1Cl)c1cnccn1 | inconclusive: -41.3%
35 | COc1ccccc1/C=C/C1=NC(=C\N(C)C)/C(=O)O1 | inconclusive: -57.8%
36 | CCOc1ccc(N2C(N)=NC(N)=NC2(C)C)cc1 | inactive: 66.2%
37 | COc1cccc(-c2cc(=O)c3cc(NC(=O)c4ccc(N(C)C)cc4)ccc3[nH]2)c1 | inactive: 115%
38 | COc1cccc(-c2noc(C(C)n3nc(C)c([N+](=O)[O-])c3C)n2)c1 (centres undefined) | inconclusive: -44.4%
39 | COc1cc(-c2cc(=O)c3c(O)c(OC)c(OC)c(O)c3o2)ccc1O | inactive: 87.3%
40 | COc1cc(OC)cc(C(=O)N[C@H](C(=O)Nc2ccc(S(=O)(=O)N(C)C)cc2)C(C)C)c1 | inconclusive: -33.8%

Row | SMILES | activity score
41 | S=C(NCCc1cccc(Cl)c1)NC1CCCCC1 | active: -118%
42 | O=C(O)CSCC(=O)Nc1ccc(C2CCCCC2)cc1 | inactive: 108%
43 | COc1ccc(-c2nc(O)c3cnccn23)cc1 | inconclusive: -35.1%
44 | O=C(NC1CCCCCC1)c1c2c(nc3ccccc13)CCN(Cc1ccccc1)C2 | inconclusive: -56.8%
45 | CCC(=O)c1cc2c(cc1NC(=O)c1cccs1)OCCO2 | inconclusive: -50.7%
46 | OCCN1CCN(CC(O)COc2ccc(C34CC5CC(CC(C5)C3)C4)cc2)CC1 (centres undefined) | inactive: 84.9%
47 | S=C(NC1CCCCC1)N1CCc2ccccc2C1 | inconclusive: -56%
48 | COc1ccc(OC)c(NC(=O)c2nc(S(=O)(=O)Cc3ccccc3)ncc2Cl)c1 | inactive: 99.5%
49 | CCc1ccc(/C=C/c2c([N+](=O)[O-])c(=O)n(C)c(=O)n2C)cc1 | active: -61.7%
50 | NC(=O)c1ccsc1NC(=O)CCS(=O)(=O)c1ccccc1 | inconclusive: -51.8%
51 | CCOCCCNC1=C(Cl)C(=O)c2ccccc2C1=O | inconclusive: -31.9%
52 | CC1=NN(c2ccc(C)c(C)c2)C(=O)/C1=C\C=C\c1ccc([N+](=O)[O-])o1 | inactive: 78.2%
53 | CN(C)c1cccc(NC(=O)c2ccco2)c1 | inconclusive: -59.4%
54 | COc1ccccc1-c1ccc(Nc2cccc(C(C)=O)c2)nn1 | inconclusive: -58.9%
55 | COc1ccc(C2CC(=O)N3CN(c4ccc(C)c(Cl)c4)CSC3=C2C#N)cc1OC (centres undefined) | inconclusive: -50.5%
56 | O=C(N/N=C/c1cccc(Br)c1)c1ccc(Br)cc1 | inconclusive: -43.4%
57 | COC(=O)C1CC23C=CCN4CCC5(c6ccccc6NC15C2C)C43 (centres undefined) | inactive: 93.8%
58 | CCCCN(CC)C(=S)Nc1ccc2nc(N3CCN(C)CC3)cc(C)c2c1 | inconclusive: -60%
59 | OCCSc1nnc(Nc2ccccc2)s1 | inconclusive: -46.6%
